The source of these data is US20130109714A1, “NEURODEGENERATIVE DISEASE THERAPEUTIC AGENT” (National University Corporation Hokkaido University, priority 2010, published 2013).

The nature of data set [1]: Hydroxyl radical elimination, ESR-spin trapping method using DMPO. Conditions: Fenton reaction, 25 μM FeSO4, 100 μM H2O2; No. 23 at 1, 10 or 100 μM; thiourea 500 mM. The procedure: Hydroxyl radical is the most important neurotoxicity factor in dopamine-induced neurodegeneration. Therefore, to investigate whether a DJ-1 bound compound directly acts on hydroxyl radicals, evaluation was carried out by an electron spin resonance (ESR)-spin trapping method using 5,5-dimethylpyrroline-N-oxide (DMPO).
To 200 μL of a 100-mM phosphate buffer reaction mixture containing 25 μM diethylene-triamine pentaacetic acid, 25 μM FeSO4, 100 μM H2O2, and 112.5 mM DMSO, the 1 μM, 10 μM, or 100 μM DJ-1 compound (No. 23) and 500-mM thiourea were added respectively. For comparison, a phosphate buffer reaction mixture containing dethylene-triamine pentaacetic acid, FeSO4, and DMSO, as well as the phosphate buffer reaction mixture further containing H2O2 were prepared. These drugs and reagents were dissolved in milli-Q water. The reaction mixture was transferred to a flat quartz cuvette, and introduced in X-band JEOL RFR-30b radical analysis system. Hydroxyl radicals generated from Fenton reaction between Fe^2+ and H2O2 are trapped by DMPO. From 1 min after addition of DMPO, stable DMPO—OH adducts were measured. Signal of Mn^2+ was used as the internal standard signal, […]

In data set [2] the test system is human dopamine-producing cell SH-SY5Y. The procedure:
To a culture solution of human dopamine-producing cell SH-SY5Y, 1 μM DJ-1 bound compound (No. 23) dissolved in 0.01% DMSO was administered for 20 h, then the cultured solution was treated with 50 μM 6-OHDA (6-hydroxydopamine) for 24 h or with 125 μM 6-OHDA for 1 h; and the ratio of cell death was investigated by MTT assay. For comparison, a control (−) without addition of the DJ-1 bound compound and a control (DMSO) with addition of only DMSO, and a sample with addition of dopamine were used and subjected to the same method.

The test system is the same in data set [3]. The experiment in a line: Active oxygen species caused by 6-OHDA, fluorescent probe DCFA-DA. The format is cell-based. Conditions: 1 μM compound for 20 h, 40 μm 6-OHDA for 10 min, compared to dopamine. The procedure: Subsequently, the active oxygen species was measured by a fluorescent spectrophotometer.
The test system is the same in data set [4]. As to the kind of experiment: Cell death caused by hydrogen peroxide in cultured cells, MTT assay. The format is cell-based. Conditions: 1 μM compound for 24 h. The procedure:
HT13 represented by formula (6) (provided from a person, Hoshi University), HT19 represented by formula (12) (provided from a person, Hoshi University), and HT20 represented by formula (13) (provided from a person, Hoshi University) at 1 μM each were administered for 24 h, then 250 μM H2O2 was added and treated for 2 h, and the ratio of the cell death was investigated by MTT assay. As control, a control (−) without addition of a compound was used.
Background: Formazan colour is commonly taken as a measure of viable cells.

With `COc1cc(C(=O)Nc2ccc(-c3cn4cccc(C)c4n3)cc2)cc(OC)c1OC` [No. 23], in data set [1], the “DMPO-OH adduct ESR signals (FIGS. 13 and 14)” value was “a decrease in peaks was not observed”. Moreover, in data set [2] (1 μM compound), the “toxicity for cultured cells” value is listed as “did not exert toxicity”. Further, the “cell death caused by 6-OHDA (FIGS. 8 and 9)” value in data set [2] (1 μM compound for 20 h, then 50 μM 6-OHDA for 24 h or 125 μM 6-OHDA for 1 h, MTT) is recorded as “significantly suppresses the cell death”. Besides, the “production of active oxygen species caused by 6-OHDA (FIG. 10)” value in data set [3] is reported as “significantly suppresses the production of active oxygen species”. In addition, the “cell death compared to the control (FIG. 1)” value in data set [4] (then 250 μM H2O2 for 2 h, SH-SY5Y, MTT) is listed as “suppressed”. In addition, in data set [4] (then various concentrations of H2O2 for 2 h, up to the high H2O2 concentration of 500 μM, controls showed increase of cell death from 150 μM), the “cell death for different concentrations of hydrogen peroxide (FIG. 2)” value is “significantly suppressed cell death”.
